Assay results: PubChem BioAssay AID504706 (National Center for Advancing Translational Sciences (NCATS), 2011)
About 200 (0.062%) of roughly 320,000 compounds were called active. The shares of active, inactive and inconclusive entries below differ from those in the screen. Calls follow the shape of the dose curve; as a rule, active = well fitted activation curve with a large enough effect; inconclusive = small, poorly fitted or top-dose-only effect; inactive = no such curve, though single readings can be large or run the other way. No potency is given beside an inconclusive call; the fits are too rough.

test: qHTS assay for re-activators of p53 using a Luc reporter; settings: H1299 p53-A138V BP100-luciferase reporter, luminescence, 24 h; series mostly up to 92.2 µM; activity change, positive = activation: at the top concentration; also: nearly all actives have a fitted effect of over 45% in size; as to activity change, positive = activation: % of control where 0% means no effect
Summary of the method: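 p53-null H1299 cells stably carrying temperature-sensitive p53-A138V and a BP100-luciferase reporter were pinned with compounds (4-point, 1:5 series) and held 24 hrs at 37 deg C. Luminescence was read 10 min after detection reagent.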
Potency is read from the fitted curve at half-maximal effect; tags tell the direction and shape of the fitted curve.

For `CC1CCN(S(=O)(=O)c2ccc3c(c2)c(=O)c(C(=O)N2CCCCC2)cn3C)CC1`, which “activity change, positive = activation” value is on record?
The value was inactive: 1.7%.

Which Potency does the source give for `CC(=O)c1ccc(NC(=O)c2cc(Cl)sc2Cl)cc1` here?
The Potency was inconclusive [activator, partial curve, poor fit].

Which Potency does the source give for `CC1CC(C)(C)N(C(=O)CN2CCN(C)CC2)c2ccccc21` (centres undefined) here?
Its Potency is inconclusive [activator, partial curve, poor fit].

Which Potency does the source give for `CC(C)CNC(=O)C1CCN(Cc2ccc(OCc3ccccc3)cc2)CC1` here?
The Potency was inconclusive [activator, partial curve, poor fit].

With `Cc1ccc(OCc2cc(C(=O)N3CCN(c4ccccc4)CC3)no2)cc1C` as the compound, how does the Potency read?
The Potency was inconclusive [activator, partial curve, poor fit].

For `Cc1cnc(C(=O)OC(C)C(=O)Nc2ccc3c(c2)OCCO3)cn1` (centres undefined), which Potency is on record?
Its Potency is inconclusive [activator, single point].

Which “activity change, positive = activation” value does the source give for `Cc1ccc(Cc2cnc(NC(=O)/C(C#N)=C/c3ccc(-c4ccc([N+](=O)[O-])cc4)o3)s2)cc1` here?
Its value is inactive: 1.65%.

For `Nc1scc(-c2ccncc2)c1Cl`, which Potency is on record?
The Potency was inconclusive [activator, full curve, poor fit].

For `CCN(C(C)=O)c1nnc(CSc2nc3ccccc3s2)s1`, which Potency is on record?
Its Potency is inconclusive [activator, partial curve].

With `Cc1ccc(S(=O)(=O)N2CCCC2)cc1C(=O)N1CCC(C)CC1` as the compound, how does the “activity change, positive = activation” value read?
Its value is inactive: 2.52%.

With `Cc1ccc(-c2ccccc2)n1-c1cccc(C(=O)O)c1` as the compound, how does the Potency read?
Its Potency is inconclusive [activator, partial curve, poor fit].

For `Fc1ccc(NC(=S)N/N=C/c2cccc(Br)c2)c(F)c1`, which “activity change, positive = activation” value is on record?
The value was inactive: 0.515%.

With `COc1ccc2c(c1OC)C(=O)N(c1cccc(C)c1)C2=O` as the compound, how does the Potency read?
The Potency was inconclusive [activator, partial curve, poor fit].

Which “activity change, positive = activation” value does the source give for `CCOc1c(OC(C)=O)ccc(/C=C/c2ccc3cccc(OC)c3n2)c1[N+](=O)[O-]` here?
The value was inactive: 5.84%.

For `CC(C(=O)Nc1ccc(F)c(F)c1)N1CCN(C)CC1` (centres undefined), which “activity change, positive = activation” value is on record?
The value was inactive: 4.74%.

For `CCCN1C(=O)c2cc(C(=O)NC3CCCCCC3)ccc2C1O` (centres undefined), which Potency is on record?
The Potency was inconclusive [activator, partial curve, poor fit].

With `COc1cccc(-c2cc3nc4c(c(N5CCC6(CC5)OCCO6)n3n2)CCCC4)c1` as the compound, how does the Potency read?
Its Potency is inconclusive [activator, full curve, poor fit].

For `COc1ccc(NC(=O)CCSc2nnnn2C)cc1`, which Potency is on record?
The Potency was inconclusive [activator, partial curve, poor fit].

With `CCC(=O)NC(=S)Nc1ccc(NC(=O)c2ccco2)cc1` as the compound, how does the “activity change, positive = activation” value read?
The value was inactive: 12.1%.

With `COc1ccc(CCNC(=O)COC(=O)/C=C/c2ccc3c(c2)OCO3)cc1` as the compound, how does the Potency read?
Its Potency is inconclusive [activator, partial curve, poor fit].

For `CCN(CC)CCN(C(=O)c1ccc(S(=O)(=O)N2CCCC2)cc1)c1nc2cc(C)cc(C)c2s1`, which Potency is on record?
Its Potency is inconclusive [activator, single point].

Which “activity change, positive = activation” value does the source give for `CN(C)CCNC(C(=O)Nc1cc(Cl)cc(Cl)c1)c1ccccc1` (centres undefined) here?
The value was inactive: -4.75%.

Which “activity change, positive = activation” value does the source give for `CC(C)CCOP(=O)(c1ccc(N(C)C)cc1)C(O)c1ccc(Cl)cc1Cl` (centres undefined) here?
Its value is inactive: -10.8%.

Which Potency does the source give for `CN(C)S(=O)(=O)c1ccc2oc(SCC(=O)NCC(F)(F)F)nc2c1` here?
Its Potency is inconclusive [activator, single point].

For `COc1ccc(S(=O)(=O)Nc2ccccc2C(=O)N2CCOCC2)cc1C`, which “activity change, positive = activation” value is on record?
Its value is inactive: -2.17%.

Which Potency does the source give for `COc1ccc(/[N+]([O-])=C/c2ccco2)cc1` here?
Its Potency is inconclusive [activator, partial curve, poor fit].

With `O=C(CSc1nc2ccccc2c(=O)[nH]1)N1CCN(S(=O)(=O)c2ccccc2)CC1` as the compound, how does the “activity change, positive = activation” value read?
Its value is inactive: 2.1%.

Which “activity change, positive = activation” value does the source give for `Cn1c(C(=O)N2CCN(C(=O)c3ccco3)CC2)cc2c(=O)n(C)c3ccccc3c21` here?
Its value is inactive: -4.41%.

With `COc1ccccc1NC(C#N)c1ccccc1OCc1ccccc1` (centres undefined) as the compound, how does the Potency read?
The Potency was inconclusive [activator, partial curve, poor fit].

With `CC1CCCCN1C(=O)CSc1nnc(-c2cccnc2)o1` (centres undefined) as the compound, how does the Potency read?
Its Potency is inconclusive [activator, partial curve, poor fit].

For `CCOc1ccc(S(=O)(=O)N2CCOCC2)cc1NC(=O)CSCc1ccc(C)cc1`, which “activity change, positive = activation” value is on record?
Its value is inactive: -2.72%.

Which Potency does the source give for `Cc1nnc(N/N=C/c2ccc([N+](=O)[O-])cc2)n1N` here?
The Potency was inconclusive [activator, single point].

For `O=C1NC(c2ccccc2)=C(c2nc3ccccc3s2)C(c2ccccc2)N1` (centres undefined), which “activity change, positive = activation” value is on record?
The value was inactive: -7.65%.

Which Potency does the source give for `Cc1nc(N=Nc2ccc(O)cc2)n[nH]1` here?
The Potency was inconclusive [activator, full curve, poor fit].

For `O=C(Cc1ccccc1[N+](=O)[O-])NCc1ccc(Cl)cc1`, which Potency is on record?
Its Potency is inconclusive [activator, full curve, poor fit].

With `N#Cc1ccc(C(=O)Nc2nnc(-c3ccccn3)o2)cc1` as the compound, how does the Potency read?
The Potency was inconclusive [activator, partial curve, poor fit].

Which Potency does the source give for `COc1cccc(NC(=O)CN(C)C(=O)c2cc3c(s2)CCCC3)c1` here?
Its Potency is inconclusive [activator, single point].

For `O=C1N=C(N2CCOCC2)SC1=C1CCCCC1`, which Potency is on record?
The Potency was inconclusive [activator, partial curve, poor fit].

Which “activity change, positive = activation” value does the source give for `CC(=O)Nc1ccc(S(=O)(=O)c2c(N)n(CCN3CCOCC3)c3nc4ccccc4nc23)cc1` here?
Its value is inactive: -1.6%.

For `O=C(NC(=S)Nc1ccccc1)c1ccc(-c2ccccc2)cc1`, which Potency is on record?
The Potency was inconclusive [activator, partial curve, poor fit].

Which “activity change, positive = activation” value does the source give for `Cc1cccn2c(=O)nc(SCC(=O)N3CCCC3)nc12` here?
The value was inactive: 0.701%.

For `CC(=O)c1ccc(OCc2cc(C(=O)N3CCN(c4ccccc4)CC3C)no2)cc1` (centres undefined), which Potency is on record?
Its Potency is inconclusive [activator, partial curve, poor fit].

Which “activity change, positive = activation” value does the source give for `COC(=O)c1cc(NC(=O)c2cc(C(C)(C)C)nn2Cc2ccc(F)cc2)ccc1N1CCOCC1` here?
Its value is inactive: 1.21%.

Which Potency does the source give for `Cc1ccnc(NC(=O)c2cc(S(=O)(=O)NCc3ccccc3)ccc2C)c1` here?
Its Potency is inconclusive [activator, single point].
